# Laboratory results taken from paper PMC4336329 (PLoS ONE, 2015).
# The campaign covered roughly 310,000 compounds. About 14,000 (4.5%) showed an effect of 50% or more. The effect is printed as a negative number. The list shows a part of the results.
# Molecular target: human ether-à-go-go-related gene (hERG) potassium channel (human, UniProt Q12809)
# Experiment: primary screen, population patch clamp on CHO cells stably expressing hERG
# 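Note: peak tail current of the secondary pulse compared with the same well before compound.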
# Chain of human ether-à-go-go-related gene (hERG) potassium channel (Q12809 whole entry, looked up): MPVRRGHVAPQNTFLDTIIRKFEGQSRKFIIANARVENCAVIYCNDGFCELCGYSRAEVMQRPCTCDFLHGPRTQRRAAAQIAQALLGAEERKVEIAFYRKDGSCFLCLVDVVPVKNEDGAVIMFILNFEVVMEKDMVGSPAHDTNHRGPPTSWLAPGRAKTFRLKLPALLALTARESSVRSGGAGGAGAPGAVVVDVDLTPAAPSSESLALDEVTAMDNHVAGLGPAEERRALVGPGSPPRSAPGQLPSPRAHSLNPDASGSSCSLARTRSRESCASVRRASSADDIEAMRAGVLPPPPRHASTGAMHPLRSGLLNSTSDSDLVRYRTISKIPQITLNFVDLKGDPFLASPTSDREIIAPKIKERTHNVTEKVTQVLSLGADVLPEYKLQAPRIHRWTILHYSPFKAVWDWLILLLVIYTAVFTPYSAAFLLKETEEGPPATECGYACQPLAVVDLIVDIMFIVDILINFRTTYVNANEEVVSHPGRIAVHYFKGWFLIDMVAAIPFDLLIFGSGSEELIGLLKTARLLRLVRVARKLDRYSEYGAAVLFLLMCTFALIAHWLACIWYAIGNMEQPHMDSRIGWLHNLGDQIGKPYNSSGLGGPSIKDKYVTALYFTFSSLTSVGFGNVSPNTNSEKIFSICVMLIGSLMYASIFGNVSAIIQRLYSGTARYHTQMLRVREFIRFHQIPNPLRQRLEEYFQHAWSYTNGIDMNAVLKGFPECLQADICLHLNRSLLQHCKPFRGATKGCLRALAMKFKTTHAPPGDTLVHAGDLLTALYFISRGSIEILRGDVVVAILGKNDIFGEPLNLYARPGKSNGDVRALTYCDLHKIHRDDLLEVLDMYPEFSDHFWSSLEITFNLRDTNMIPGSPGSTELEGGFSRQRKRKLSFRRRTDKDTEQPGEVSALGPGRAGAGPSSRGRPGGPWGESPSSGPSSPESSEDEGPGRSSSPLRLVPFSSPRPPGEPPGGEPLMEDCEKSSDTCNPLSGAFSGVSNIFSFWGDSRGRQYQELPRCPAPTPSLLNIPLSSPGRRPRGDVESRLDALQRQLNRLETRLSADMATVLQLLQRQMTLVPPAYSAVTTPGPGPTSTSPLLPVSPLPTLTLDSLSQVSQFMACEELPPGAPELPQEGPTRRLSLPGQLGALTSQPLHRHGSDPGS
row,SMILES,"hERG current change (%, negative = inhibition) at 10uM"
1,O=C(NCc1ccccc1)C1c2ccccc2Oc2ccccc21,7.83%
2,Cc1ccc(CN2CC(C(=O)Nc3cc(C)ccn3)CC2=O)cc1 (stereo not shown),0.197%
3,CCCn1c(N)c(N(CCOC)C(=O)c2cccc(S(=O)(=O)N3CCCc4ccccc43)c2)c(=O)[nH]c1=O,3.29%
4,CCOC(=O)N1CCC(NC(=O)c2cc(C(=O)Nc3ccc(OC)c(OC)c3)ccc2CO)CC1,6.11%
5,C=CCC1(CC=C)CCCN1C(=O)CC1C(=O)NCCN1Cc1ccc(OC)c(OC)c1 (stereo not shown),-2.96%
6,CC1CCN(S(=O)(=O)c2ccc3c(c2)c(=O)c(C(=O)NCc2ccccc2Cl)cn3C)CC1,13.9%
7,CC1CC(C)CN(c2ncc3c(n2)CC(c2ccccc2Cl)CC3=O)C1 (stereo not shown),21.9%
8,CC(C)C(=O)NC(c1ccccc1Cl)c1c(O)ccc2ccccc12 (stereo not shown),7.79%
9,CCOC(=O)CCCNC(=O)CN1C(=O)NC2(CCCCCC2)C1=O,11.3%
10,C=CCc1ccc(OCC(O)CN2CCN(Cc3ccccc3)CC2)c(OC)c1.Cl (stereo not shown),-77%
11,Cc1cc(C)c(S(=O)(=O)c2ccc(Cl)cc2)c(Cl)n1,-2.99%
12,CCn1c(SCC(=O)Nc2cccc(OC)c2)nc2c(c1=O)SCC2,-36%
13,COc1ccc(C(=O)N2CCCCCCC2)cc1OC1CCN(C(C)C)CC1,-7.39%
14,CCOC(=O)c1ccc(Nc2nc(C)cc(=O)[nH]2)cc1,3.62%
15,CCOC(=O)C1C(c2ccccc2O)NC(=O)NC1(O)C(F)(F)F (stereo not shown),16.9%
16,CCS(=O)(=O)N1Cc2ccccc2CC1C(=O)Nc1nnc(C2CC2)s1 (stereo not shown),-7.05%
17,CN(C)C=O.CN(C)c1ccc(/C=C/c2nc3ccccc3c(=O)n2-c2ccc(C(=O)O)cc2)cc1,19.8%
18,Cc1cc(=O)oc2cc(NC(=O)c3ccc(OC(F)F)cc3)ccc12,3.2%
19,COc1cccc(CNC(=O)c2cc(S(=O)(=O)N3CCOCC3)cn2C)c1,-0.819%
20,COc1ccccc1NC(=O)C(=O)N1N=C(C(C)C)CC1(O)C(F)(F)F (stereo not shown),11.5%
21,COc1ccc(OCC(=O)Nc2ccc(Cl)cc2C(=O)c2ccccc2)cc1,10.4%
22,COc1ccc(NC(=O)COC(=O)CN2C(=O)NC(C)(C)C2=O)cc1,2.55%

row,SMILES,"hERG current change (%, negative = inhibition) at 10uM"
1,CC(=O)Nc1ccc(NC(C)=C(C#N)C#N)cc1,15.8%
2,Cc1ccc2nc(C(C)O)[nH]c2c1 (stereo not shown),17.3%
3,Cc1cc(NC(=O)C(C)C)ncc1NC(=O)c1ccco1,-2.61%
4,CCOC(=O)N1CCN(S(=O)(=O)c2ccc(OCC(=O)OC)c(Cl)c2)CC1,-16.7%
5,Cc1ccc2oc(-c3ccc(NC(=O)CC(C)C)cc3)nc2c1,3.21%
6,C/C(=N\NS(=O)(=O)c1ccc([N+](=O)[O-])cc1)c1c[nH]c2ccccc12,0.605%
7,CCN(CC)CCOc1ccccc1C(C)=O.O=C(O)C(=O)O,6.73%
8,O=c1cccc(-c2ccccc2)[nH]1,-2.53%
9,CCCNC(=O)c1cc2c3ccccc3n(C)c2s1,-29.5%
10,Cc1cc(=O)oc2cc(Oc3ncccc3[N+](=O)[O-])ccc12,1.68%
11,CC(=O)c1ccc(NC(=O)CSc2nnc(C3CC3)n2C)cc1,5.6%
12,Cc1cc(NC(=O)CC2Oc3ccccc3NC2=O)ccc1Br (stereo not shown),18%
13,Cc1cc(Cl)cc(Cl)c1OCC(=O)NCc1ccco1,3.5%
14,CCC(=O)c1ccc(N2CCCC2)c(F)c1,6.95%
15,CCOc1ccc(NC2=NCCC(=O)N2Cc2cccs2)cc1.Cl,-2.46%
16,Cc1ccc(S(=O)(=O)NNC(=O)C2CC=CCC2C(=O)O)cc1 (stereo not shown),9.94%
17,O=C(N/N=C/c1ccccn1)c1ccc(NC(=O)c2ccccc2Cl)cc1,-5.08%
18,O=S(=O)(NCc1ccc(Cl)cc1)c1ccc(Cl)nc1,-9.51%
19,COc1ccccc1OCC(=O)Nc1cc(NC(=O)COc2ccccc2OC)cc(C(=O)O)c1,16.9%
20,CCn1c(SCC(=O)NCCc2ccccc2)nc2c(c1=O)SC(C)C2 (stereo not shown),5.03%
21,NC(=O)CSc1nnc(-c2ccc(O)cc2)n1Cc1ccco1,-1.46%
22,CCOC(=O)C1CCCN(C(=O)/C=C/c2cc(OC)c(OC)c(OC)c2)C1 (stereo not shown),-6.33%

row,SMILES,"hERG current change (%, negative = inhibition) at 10uM"
1,Cc1ccc(C(=O)Nc2ccccc2C(=O)N2CCCC2)cc1[N+](=O)[O-],2.34%
2,O=C1c2ccccc2NC(c2cccc(O)c2)N1O (stereo not shown),14.9%
3,O=C(c1ccc(OC2CCN(C/C=C/c3ccccc3)CC2)cc1)N1CCCCC1,-53.1%
4,Cc1cccc(-c2oc3ccc(-c4ccc5c(c4)OCO5)cc3c2/C=C/c2ccc(N)cc2)c1,5.18%
5,Cc1csc(NC(=O)c2cccnc2Cl)n1,8.38%
6,CC(C)(C)c1cc(NC(=O)CCl)n(-c2ccccc2)n1,-2.78%
7,O=C(c1ccccc1)c1ccccc1C(=O)N1CCN(C(=O)c2ccccc2)CC1,-10.2%
8,COC(=O)C(Cc1ccccc1)NC(=O)c1cc(S(=O)(=O)N(C)C)ccc1Cl (stereo not shown),19%
9,N#Cc1ccc(Oc2cnccn2)cc1,17.1%
10,CC1Cc2ccccc2N1S(=O)(=O)c1cccc(C(=O)NCc2ccncc2)c1 (stereo not shown),-34.9%
11,Cc1cccc(NC(=O)C(CCC(N)=O)NC(=O)OCc2ccccc2)c1 (stereo not shown),6.48%
12,O=C(CCCn1c(SCc2cccc([N+](=O)[O-])c2)nc2ccccc2c1=O)NCC1CCCO1 (stereo not shown),-59.7%
13,Cc1csc(NC(=O)CSc2nnc3c4ccccc4nc(C(C)(C)C)n23)n1,2.81%
14,C/C(=N\OC(=O)c1cccc(C)c1)c1sc(-c2ccccc2)nc1C,-0.903%
15,COc1cc(NS(=O)(=O)c2ccc(NC(=O)c3ccc(C)o3)cc2)nc(OC)n1,-9.23%
16,O=C(Nc1ccc(F)cc1)Nc1ccccc1NS(=O)(=O)c1cccs1,7.36%
17,Cc1ccn2cc(CCNC(=O)CC(C)(C)C)nc2c1,-2.43%
18,Cc1cccc(C)c1OP(N)(=O)Oc1c(C)cccc1C,11%
19,CCn1c(-c2ccccn2)nc2cc(S(=O)(=O)N(C)C)ccc21,8.62%
20,O=C(Nc1ccccn1)c1ccc(COc2ccccc2Cl)o1,-19.9%
21,O=C(COC(=O)c1cccnc1Cl)c1ccc(Cl)cc1Cl,6.95%
22,Cc1nn(CC(=O)NC(=O)NC2CCCCC2C)c(=O)c(C#N)c1C (stereo not shown),-2.19%

row,SMILES,"hERG current change (%, negative = inhibition) at 10uM"
1,CCOC(=O)C1(Cc2ccccc2Cl)CCN(Cc2csc(C(C)=O)c2)CC1,-12.3%
2,CCOC(=O)c1sc(C)c(C(N)=O)c1NC1=NCCCCC1,-14.6%
3,COc1ccc(CN2C(=O)c3ccccc3C2=O)cc1C(=O)OC(C)C(=O)NC(N)=O (stereo not shown),26.5%
4,CCC(C)[C@H](NC(=O)[C@@H]1CSC2c3ccccc3C(=O)N21)C(=O)NC1CCCC1 (stereo partly shown),1.57%
5,COc1ccccc1CNC(=O)CSc1ncc(C(=O)Nc2ccccc2)c(=O)n1C,-12.8%
6,COc1ccc(/C=C/CN2CCC(CO)(Cc3ccccc3Cl)CC2)cc1,-79.6%
7,CCCOc1ccc(C2NC(=O)CCC2[N+](=O)[O-])cc1 (stereo not shown),11.5%
8,Cc1ccc(S(=O)(=O)Nc2cccc(C(=O)NCC(c3ccco3)N3CCCCC3)c2)cc1F (stereo not shown),-48.4%
9,C=C(C)C1CC=C(CN2CCC(O)CC2)CC1 (stereo not shown),-6.28%
10,COCCCNC(=O)CCc1nc2cccnc2n1Cc1ccccc1,-29.8%
11,CCC(CC)C(=O)Nc1cccc(C(=O)Nc2ccc(S(=O)(=O)Nc3ccc(C)cc3)cc2)c1,-4.7%
12,CCCNS(=O)(=O)c1ccc(OCC(=O)NCc2ccc3c(c2)OCO3)cc1,-23.8%
13,O=C(CN1C(=O)NC2(CCCCCC2)C1=O)c1ccccc1,1.83%
14,CCOc1ccccc1NC(=O)CN1CCC(NC(=O)Nc2ccccc2)CC1,-38.8%
15,COc1cc(O)cc2cc3c(c(O)c12)C(=O)CC(C)(O)O3 (stereo not shown),2.71%
16,CC(C)(C)C(=O)CN1C(=O)C2(OCCO2)c2ccccc21,5.03%
17,CCOC(=O)C1=C(CC)OC(N)=C(C#N)C1c1cc(OC)ccc1OC (stereo not shown),6.37%
18,COc1cccc(CC(=O)Nc2ccc(S(=O)(=O)Nc3nc(C)cc(C)n3)cc2)c1,10.2%
19,COc1ccc(-c2cc(C(=O)Nc3ccc(F)cc3F)no2)cc1,8.61%
20,CC1=C(C(=O)OC(C)C)C(c2cccnc2)n2ncnc2N1 (stereo not shown),10.6%
21,O=C(COc1ncnc2ccccc12)NCCC1=CCCCC1,-3.61%
22,CC1(C)Cc2c(c(N3CCOCC3)nc3sc(C(=O)N4CCCCC4)c(N)c23)CO1,7.18%
